Assay [1] deals with endogenous TNRC6A (human (endogenous in HEK293T)) (UniProt Q8NDV7). As to the kind of experiment: co-IP; endogenous TNRC6A of HEK293T immunoprecipitated with the anti-TNRC6A antibody (control IgG beside it) from lysates of cells transfected with Flag-tagged eIF4E1 or eIF4E2, in the presence of RNase A; Western blotting. In general terms: Immunoblotting shows a protein as a band on a membrane.

By UniProt entry, the sequences of proteins in these tests, tags left out.
UniProt Q8NDV7: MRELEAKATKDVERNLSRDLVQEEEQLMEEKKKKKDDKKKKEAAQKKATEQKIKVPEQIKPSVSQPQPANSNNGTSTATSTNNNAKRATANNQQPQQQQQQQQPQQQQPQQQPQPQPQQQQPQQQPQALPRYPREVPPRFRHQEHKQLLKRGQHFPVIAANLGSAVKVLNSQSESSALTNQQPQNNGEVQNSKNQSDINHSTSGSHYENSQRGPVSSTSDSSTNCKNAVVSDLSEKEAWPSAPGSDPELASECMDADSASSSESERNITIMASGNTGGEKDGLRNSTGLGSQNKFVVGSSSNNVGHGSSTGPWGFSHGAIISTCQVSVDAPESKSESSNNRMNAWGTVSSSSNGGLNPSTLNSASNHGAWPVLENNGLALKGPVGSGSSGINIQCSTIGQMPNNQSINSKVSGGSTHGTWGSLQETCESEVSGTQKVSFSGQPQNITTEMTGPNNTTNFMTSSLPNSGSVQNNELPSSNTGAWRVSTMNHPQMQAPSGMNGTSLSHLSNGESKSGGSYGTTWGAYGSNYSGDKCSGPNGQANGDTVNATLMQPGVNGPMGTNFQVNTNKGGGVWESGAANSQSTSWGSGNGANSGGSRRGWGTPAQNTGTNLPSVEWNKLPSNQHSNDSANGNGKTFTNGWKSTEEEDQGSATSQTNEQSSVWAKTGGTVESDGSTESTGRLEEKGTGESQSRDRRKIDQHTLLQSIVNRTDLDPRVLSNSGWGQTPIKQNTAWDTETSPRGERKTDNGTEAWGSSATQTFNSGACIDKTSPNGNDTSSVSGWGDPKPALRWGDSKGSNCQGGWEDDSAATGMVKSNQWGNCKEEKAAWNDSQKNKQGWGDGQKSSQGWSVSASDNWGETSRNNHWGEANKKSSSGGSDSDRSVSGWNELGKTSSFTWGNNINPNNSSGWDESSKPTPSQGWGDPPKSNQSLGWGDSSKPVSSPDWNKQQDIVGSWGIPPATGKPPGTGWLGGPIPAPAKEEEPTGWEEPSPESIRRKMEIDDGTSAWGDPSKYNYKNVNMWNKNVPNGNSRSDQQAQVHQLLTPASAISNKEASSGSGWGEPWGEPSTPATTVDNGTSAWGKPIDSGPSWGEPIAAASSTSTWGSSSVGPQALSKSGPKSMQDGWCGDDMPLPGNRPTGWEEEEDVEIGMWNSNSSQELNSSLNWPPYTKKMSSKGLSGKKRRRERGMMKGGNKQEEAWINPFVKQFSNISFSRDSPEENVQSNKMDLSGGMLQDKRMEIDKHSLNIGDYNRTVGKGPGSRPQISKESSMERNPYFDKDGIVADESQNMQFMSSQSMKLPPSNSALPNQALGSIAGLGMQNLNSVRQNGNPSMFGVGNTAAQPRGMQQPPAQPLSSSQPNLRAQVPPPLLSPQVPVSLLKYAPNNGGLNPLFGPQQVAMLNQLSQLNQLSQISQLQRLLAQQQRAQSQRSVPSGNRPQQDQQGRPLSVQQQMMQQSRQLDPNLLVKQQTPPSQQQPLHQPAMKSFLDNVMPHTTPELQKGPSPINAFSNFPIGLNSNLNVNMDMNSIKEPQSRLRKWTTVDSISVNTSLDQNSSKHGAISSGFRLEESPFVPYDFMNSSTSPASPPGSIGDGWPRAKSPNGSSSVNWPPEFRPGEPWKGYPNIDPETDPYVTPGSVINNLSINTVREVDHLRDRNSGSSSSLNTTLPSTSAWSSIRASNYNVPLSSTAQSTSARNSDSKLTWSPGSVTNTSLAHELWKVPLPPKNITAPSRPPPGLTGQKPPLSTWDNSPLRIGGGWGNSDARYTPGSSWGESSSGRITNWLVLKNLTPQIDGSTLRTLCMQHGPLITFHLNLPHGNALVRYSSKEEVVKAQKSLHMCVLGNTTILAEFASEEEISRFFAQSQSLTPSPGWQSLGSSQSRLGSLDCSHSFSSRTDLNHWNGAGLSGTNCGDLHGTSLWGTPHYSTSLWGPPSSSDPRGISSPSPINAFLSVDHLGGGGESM
UniProt Q9UPQ9: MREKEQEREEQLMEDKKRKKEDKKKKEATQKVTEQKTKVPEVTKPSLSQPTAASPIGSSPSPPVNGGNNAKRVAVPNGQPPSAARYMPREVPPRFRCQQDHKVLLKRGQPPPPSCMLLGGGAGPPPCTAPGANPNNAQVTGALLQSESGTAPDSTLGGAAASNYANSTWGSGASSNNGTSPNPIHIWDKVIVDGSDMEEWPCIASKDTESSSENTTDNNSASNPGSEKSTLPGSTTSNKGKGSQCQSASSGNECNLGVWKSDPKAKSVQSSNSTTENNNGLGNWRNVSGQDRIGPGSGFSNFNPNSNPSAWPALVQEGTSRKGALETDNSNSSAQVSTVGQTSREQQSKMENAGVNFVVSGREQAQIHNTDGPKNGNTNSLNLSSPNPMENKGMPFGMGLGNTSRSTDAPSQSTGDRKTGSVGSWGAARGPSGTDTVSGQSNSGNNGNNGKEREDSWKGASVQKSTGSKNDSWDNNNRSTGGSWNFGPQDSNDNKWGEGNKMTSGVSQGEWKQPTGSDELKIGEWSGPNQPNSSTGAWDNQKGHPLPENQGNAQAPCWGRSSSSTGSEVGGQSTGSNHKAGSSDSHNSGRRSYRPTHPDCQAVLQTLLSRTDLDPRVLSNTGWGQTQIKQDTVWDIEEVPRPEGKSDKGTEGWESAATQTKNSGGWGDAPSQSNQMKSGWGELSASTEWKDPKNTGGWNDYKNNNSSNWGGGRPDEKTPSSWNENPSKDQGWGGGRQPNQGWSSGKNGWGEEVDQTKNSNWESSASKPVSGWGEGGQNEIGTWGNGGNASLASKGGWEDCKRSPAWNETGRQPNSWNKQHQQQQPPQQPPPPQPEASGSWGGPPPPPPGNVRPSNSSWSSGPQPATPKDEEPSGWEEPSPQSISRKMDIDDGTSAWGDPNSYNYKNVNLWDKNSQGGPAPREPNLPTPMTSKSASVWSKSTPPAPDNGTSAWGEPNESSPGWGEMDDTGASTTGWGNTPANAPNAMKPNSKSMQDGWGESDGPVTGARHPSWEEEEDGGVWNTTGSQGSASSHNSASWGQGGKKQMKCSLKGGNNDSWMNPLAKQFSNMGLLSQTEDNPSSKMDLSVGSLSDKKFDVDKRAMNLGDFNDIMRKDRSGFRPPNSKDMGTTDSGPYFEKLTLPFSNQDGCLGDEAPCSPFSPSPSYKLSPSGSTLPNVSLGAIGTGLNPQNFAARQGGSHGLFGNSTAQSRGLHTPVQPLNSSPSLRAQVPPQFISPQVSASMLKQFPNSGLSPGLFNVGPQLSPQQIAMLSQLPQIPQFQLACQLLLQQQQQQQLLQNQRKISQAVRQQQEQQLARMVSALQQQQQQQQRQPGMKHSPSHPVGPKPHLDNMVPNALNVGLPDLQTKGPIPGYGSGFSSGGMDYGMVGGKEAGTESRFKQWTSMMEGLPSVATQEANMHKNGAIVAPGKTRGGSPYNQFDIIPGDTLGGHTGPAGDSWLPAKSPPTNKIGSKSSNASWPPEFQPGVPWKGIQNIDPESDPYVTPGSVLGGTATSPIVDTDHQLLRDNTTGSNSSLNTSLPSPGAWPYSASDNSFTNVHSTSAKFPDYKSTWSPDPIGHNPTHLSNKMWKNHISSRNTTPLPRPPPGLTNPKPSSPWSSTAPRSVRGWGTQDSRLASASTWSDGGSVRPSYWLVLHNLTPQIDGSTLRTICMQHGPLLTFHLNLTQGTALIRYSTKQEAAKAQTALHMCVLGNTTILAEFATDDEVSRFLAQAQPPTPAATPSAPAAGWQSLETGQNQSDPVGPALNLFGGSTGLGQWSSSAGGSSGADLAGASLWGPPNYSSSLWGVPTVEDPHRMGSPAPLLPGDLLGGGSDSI
UniProt P06730: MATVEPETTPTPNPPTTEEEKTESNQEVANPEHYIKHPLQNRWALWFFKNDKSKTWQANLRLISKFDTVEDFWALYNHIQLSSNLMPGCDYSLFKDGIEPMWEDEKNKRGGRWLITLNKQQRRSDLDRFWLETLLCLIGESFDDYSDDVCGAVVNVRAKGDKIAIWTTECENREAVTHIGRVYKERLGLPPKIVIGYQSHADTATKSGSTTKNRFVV
UniProt O60573: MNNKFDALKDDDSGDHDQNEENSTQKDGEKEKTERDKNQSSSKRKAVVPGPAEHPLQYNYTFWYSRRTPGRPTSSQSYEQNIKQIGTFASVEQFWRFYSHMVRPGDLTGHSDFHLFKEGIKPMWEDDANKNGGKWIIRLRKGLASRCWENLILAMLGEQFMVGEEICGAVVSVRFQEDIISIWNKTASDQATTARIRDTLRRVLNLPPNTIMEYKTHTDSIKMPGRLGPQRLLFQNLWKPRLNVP

A further assay has as its target TNRC6B (human) (UniProt Q9UPQ9). As to the kind of experiment: co-IP; both proteins expressed from plasmids in HEK293T, lysed 48 h after transfection in Co-IP buffer (30 mmol/L Hepes pH 7.5, 100 mmol/L NaCl, 0.5% NP40) with RNase A; TNRC6 protein or Flag-tagged TNRC6A truncation mutant immunoprecipitated (anti-Flag in Figure 2C), 2-4 h at 4°C; washed with TBST (500 mmol/L NaCl); Western blotting.

The next assay addresses TNRC6A (human) (UniProt Q8NDV7). The description is as above.

No constants are given. Whether binding was seen depends on the method and setting. Binding seen in cells or lysates may run through a third protein. Some results given as binding are weak or reduced against the parent protein; the word gives no strength.

Consider “Flag-tagged eIF4E1 (from UniProt P06730 1-217)”, for which the binding entry in assay [1] is listed as “no binding”.
The same measure, in the same setting: then “Flag-tagged eIF4E2 (from UniProt O60573 1-245)”, with “binds”.
Take “eIF4E1 (expressed from a plasmid, Figure 2A) (from UniProt P06730 1-217)”: the binding result in the assay with TNRC6B (human) and with TNRC6A (human) was “no binding” in each case.
“eIF4E2 (expressed from a plasmid, Figure 2A) (from UniProt O60573 1-245)”: the binding result in the assay with TNRC6B (human) and with TNRC6A (human) was “binds” in each case.

Values taken from PMC5636748.
